Out of some 320,000 compounds screened, about 9,100 (2.8%) were called active. Inconclusive results, whose numbers are uncertain, are shown with a selection of clear calls. The call rests on the fitted dose curve; in most records, active means well fitted activation curve with a large enough effect; inconclusive means small, poorly fitted or top-dose-only effect; inactive means no such curve, though single readings can be large or run the other way. No potency is given beside an inconclusive call; the fits are too rough.
Assay: qHTS Assay for Rab9 Promoter Activators; further: nearly all actives have a fitted effect of over 60% in size; on activation, negative = inhibition: % of control where 0% means no effect
Settings: Huh7 Rab9 promoter-luciferase reporter, luminescence, 24 h; series mostly up to 9.22 µM; activation, negative = inhibition: at the top concentration
Summary of the method: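 Measured in stably transfected Huh7 cells bearing a Rab9 promoter–luciferase construct: 24 h compound treatment at 37 °C, followed by luminescence detection.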
Potency means the concentration at half of the fitted maximal effect; tags describe the fitted curve by direction and shape.

SMILES | activation, negative = inhibition | Potency
CC1(CC(=O)Nc2ccccc2)NC(=S)N(c2ccccc2)N1 (centres undefined) | inactive: 7.61% | –
O=C(Cc1ccccc1)Nc1ccc2c(c1)CCC2 | – | inconclusive [activator, partial curve]
Cn1c(SCC(=O)c2ccccc2)nnc1-c1cccc(N)c1 | – | inconclusive [activator, partial curve]
NC(=S)N/N=C/c1c(O)ccc2ccccc12 | inactive: -15.1% | –
CN1CCN(c2ccc(NC(=O)N3CCc4ccccc43)cc2)CC1 | – | active: 112 nM
CN(C)CCCNc1oc(/C=C/c2ccccc2)nc1C#N | – | inconclusive [activator, partial curve]
Cc1occc1-c1nnc(SCC(=O)N2CCCCC2)o1 | – | inconclusive [activator, single point]
Cc1ccc(-n2[nH]c(=O)c(-c3ccccn3)c2C)cc1 | – | active: 447 nM
Cc1ccnc(N(C(=O)Nc2ccccc2)C2=NCC(C)(C)S2)c1 | – | inconclusive [activator, partial curve]
O=C(CN1Cc2ccccc2C1=O)Nc1ccc2c(c1)OCCO2 | – | inconclusive [activator, partial curve]
Cn1c(CNc2ccc(Cl)cc2)nc2ccccc21 | – | inconclusive [activator, full curve]
Nc1ccc(-c2nnn(Cc3ccccc3F)n2)cc1 | – | inconclusive [activator, single point]
Cc1ccc(C(=O)Nc2ncc(Cc3ccccc3)s2)o1 | – | active: 3160 nM
COc1ccc(NC(=O)/C=C/c2ccco2)cn1 | – | active: 3980 nM
O=C(Nc1ccc(CN2CCOCC2)cc1)c1ccccc1F | – | inconclusive [activator, partial curve]
Cc1ccc(C(=O)CC(=O)c2ccc(C)cc2O)cc1 | – | inconclusive [activator, partial curve]
c1ccc(-n2ncc3c(NCCCN4CCOCC4)ncnc32)cc1 | – | active: 3980 nM
CCC(C)NC(=O)C1c2ccccc2C(=O)N1Cc1cc(OC)ccc1OC (centres undefined) | inactive: 0.879% | –
CCOc1ccccc1OCCCOc1ccc(C)cc1Cl | – | inconclusive [activator, partial curve]
CS(=O)(=O)c1ccc2nc(NC(=O)c3cccs3)sc2c1 | – | active: 398 nM
O=c1c2ccccc2nnn1-c1ccc(Br)cc1 | – | active: 2240 nM
O=C(Nc1nc(-c2ccco2)cs1)c1ccccc1 | – | inconclusive [activator, partial curve]
Fc1ccc(C2=CC(c3cccs3)n3nnnc3N2)cc1 (centres undefined) | inactive: 8.49% | –
Cc1ccc2c(c1)N(CCC(=O)NC1CCCCC1)C(=O)CO2 | inactive: -5.81% | –
O=C(Nc1ccc2c(c1)OCO2)C1CC(c2ccccc2Cl)=NO1 (centres undefined) | – | active: 2510 nM
COc1cccc(C(=O)Nc2ccc3nc4n(c(=O)c3c2)CCCC4)c1 | – | inconclusive [activator, partial curve]
CCC(=O)c1ccc(OCc2ccccc2)c(OC)c1 | – | inconclusive [activator, single point]

SMILES | activation, negative = inhibition | Potency
Cc1ccc(NC(=O)N2CCCC2c2cccs2)cc1 (centres undefined) | – | inconclusive [activator, single point]
Cc1nn(-c2ccc(F)cc2)c(N)c1C1(O)C(=O)Nc2ccccc21 (centres undefined) | inactive: -1.39% | –
O=C(NCCc1ccc(F)cc1)Nc1ccc2c(c1)OCO2 | – | active: 2820 nM
Cc1ccc(NC(=O)n2ncc3c(C)cccc32)c(C)c1 | – | active: 316 nM
N/C(Cc1nc(-c2ccc(Br)cc2)cs1)=N\O | – | inconclusive [activator, single point]
Cc1ccc(C2(C)NC(=O)N(CC(=O)Nc3ccc(-c4nc5ccc(C)cc5s4)cc3)C2=O)cc1 (centres undefined) | – | inconclusive [activator, full curve]
Oc1ccc(Br)cc1C1Nc2ccccc2S1 (centres undefined) | – | inconclusive [activator, single point]
O=C(NNc1nc2c(F)cccc2s1)c1cc(=O)c2ccccc2o1 | – | inconclusive [activator, single point]
Cc1nc(-c2ccccc2)nc2[nH]ccc(=O)c12 | – | inconclusive [activator, partial curve]
COc1ccc2oc(=Nc3ccccc3)c(-c3nc4ccccc4[nH]3)cc2c1 | – | inconclusive [activator, partial curve]
O=C(Nc1ccc(-c2nc3c(ccc4ccccc43)o2)cc1)c1ccco1 | – | inconclusive [activator, single point]
CCCc1ccc(-c2ccc(-c3noc(-c4ccncc4)n3)cc2)nc1 | inactive: -7.47% | –
c1ccc(-c2cc3ccccc3[nH]2)cc1 | – | inconclusive [activator, partial curve]
CCOC(=O)c1ccccc1NC(=O)c1cccc2c1C(=O)N(C1CCN(C(=O)OCC)CC1)C2 | inactive: -2.25% | –
Cc1ccccc1NC(=O)/C(C#N)=C/c1ccc[nH]1 | – | inconclusive [activator, partial curve]
COc1ccc2cc(-c3cccnc3)ncc2c1 | – | inconclusive [activator, single point]
Cc1ccc(-c2noc(C3CCCN(C(=O)c4ccccc4)C3)n2)o1 (centres undefined) | – | inconclusive [activator, partial curve]
O=C(Nc1cccc(O)c1)c1c(O)c2ccccc2[nH]c1=O | – | inconclusive [activator, single point]
Cc1nn(C)cc1/C=N/NC(=O)c1ccco1 | – | inconclusive [activator, single point]
CN(C)c1ccc(C(C(=O)NCc2ccccc2)N(Cc2cccnc2)C(=O)c2snc(C(N)=O)c2N)cc1 (centres undefined) | inactive: -1.46% | –
Cc1c(S(=O)(=O)N2CCOCC2)c(=O)n(C)c(=O)n1C | inactive: -3.22% | –
COc1ccc(/C=N/Nc2ccc(C(=O)O)cc2)cc1Br | – | inconclusive [activator, full curve, poor fit]
Fc1ccccc1COc1ccc(C(=S)N2CCCC2)cc1 | – | inconclusive [activator, partial curve]
O=C(C[n+]1cc(-c2ccc(F)cc2)n2c1CCC2)c1cccs1 | – | active: 2510 nM
COc1ccc(Cc2nc(-c3ccc(Br)o3)no2)cc1OC | – | inconclusive [activator, single point]
Cc1cc(NC(=O)c2ccc3c(c2)OCCO3)ccc1NC(=O)c1ccco1 | – | inconclusive [activator, partial curve]
COC(=O)C1CCN(C(=O)c2oc3c(Cl)cc(C)cc3c2C)CC1 | – | active: 631 nM

SMILES | activation, negative = inhibition | Potency
CCCn1nnc(NC(=O)c2ccc3ccccc3c2)n1 | – | inconclusive [activator, single point]
C/C(CC(=O)NCC(C)C)=N\NC(=O)COc1cc(C)c(Br)cc1Br | inactive: -0.426% | –
O=C(Nc1cc(Br)ccc1O)c1cc(-c2cccs2)on1 | – | inconclusive [activator, single point]
CCS(=O)(=O)c1ccc2oc(Nc3cccc(OC)c3)nc2c1 | – | inconclusive [activator, partial curve]
CC1CCCN(C(C(=O)NC2CCCCC2)c2cc3c(cc2[N+](=O)[O-])OCO3)C1 (centres undefined) | inactive: 0.347% | –
CC1Cc2ccccc2N1C(=O)/C=C/c1cccc(F)c1 (centres undefined) | – | active: 1780 nM
O=C(CCCC(=O)OCC(=O)c1cccs1)Nc1ccc(Oc2ccccc2)cc1 | inactive: -2.02% | –
COc1ccc(OC)c(N/C(C)=C/C(=O)c2ccccc2)c1 | – | active: 3550 nM
O=C(NN1C(=O)C2C3CCC(O3)C2C1=O)c1ccco1 (centres undefined) | inactive: 0.247% | –
CNC(=S)N(Cc1cc2cc(C)ccc2n2nnnc12)CC(C)(C)CN(C)C | inactive: -3.12% | –
O=C(Nc1cccnc1)Nc1ccc(Cl)cc1Cl | inactive: 3.13% | –
Cn1c(=N)n(CC(=O)c2ccc(Br)s2)c2ccccc21 | – | inconclusive [activator, single point]
CN1CCc2c(sc(NC(=O)c3ccc4ccccc4c3)c2C(N)=O)C1 | – | inconclusive [activator, partial curve]
O=C(CSc1ccc(Cl)cc1)Nc1ccc(-c2nc3ccccc3[nH]2)cc1 | – | inconclusive [activator, partial curve]
Cc1cc(NC(=O)c2ccccc2C)no1 | – | inconclusive [activator, partial curve]
Cc1nc(NC(=O)/C=C/c2ccccc2)sc1C(=O)N(C)C | – | inconclusive [activator, partial curve]
Oc1ccccc1N=Nc1nc(-c2ccccc2)c(-c2ccccc2)[nH]1 | inactive: -18% | –
CN(C)c1ccc(C(O)Cc2nc3ccccc3n2C)cc1 (centres undefined) | – | inconclusive [activator, partial curve]
CC(=O)Nc1ccccc1C(=O)C(=O)Nc1ccc(F)cc1 | – | active: 2510 nM
CC(C)(CNC(=O)c1cccc(NS(=O)(=O)c2ccc(Br)cc2)c1)N1CCOCC1 | inactive: -3.12% | –
Cc1onc(-c2ccccc2Cl)c1C(=O)OCC(=O)Nc1cccc(S(=O)(=O)N(C)C)c1 | inactive: -5.03% | –
CCc1ccc(-c2cc(C)no2)cc1S(=O)(=O)NCCc1ccc(OC)c(OC)c1 | inactive: 3.17% | –
Cc1ccc(-c2nc3ccsc3c(=O)o2)cc1 | – | active: 2510 nM
CN(C)c1ccc(C(C(=O)NCc2ccccc2)N(Cc2ccco2)C(=O)c2snc(C(N)=O)c2N)cc1 (centres undefined) | inactive: -1.67% | –
O=C(CSc1nncs1)Nc1ccc2c(c1)OCCO2 | – | inconclusive [activator, single point]
